# Assay results taken from article PMC4336329 (PLoS ONE, 2015).
# The whole screen tested about 310,000 compounds, of which about 2,200 (0.71%) showed an effect of 50% or more. Effects have a minus sign here. The list shows a part of the results.
# Target: human ether-à-go-go-related gene (hERG) potassium channel (human, UniProt Q12809)
# Experiment: primary screen, population patch clamp on CHO cells stably expressing hERG
# human ether-à-go-go-related gene (hERG) potassium channel, sequence (Q12809 whole entry, looked up): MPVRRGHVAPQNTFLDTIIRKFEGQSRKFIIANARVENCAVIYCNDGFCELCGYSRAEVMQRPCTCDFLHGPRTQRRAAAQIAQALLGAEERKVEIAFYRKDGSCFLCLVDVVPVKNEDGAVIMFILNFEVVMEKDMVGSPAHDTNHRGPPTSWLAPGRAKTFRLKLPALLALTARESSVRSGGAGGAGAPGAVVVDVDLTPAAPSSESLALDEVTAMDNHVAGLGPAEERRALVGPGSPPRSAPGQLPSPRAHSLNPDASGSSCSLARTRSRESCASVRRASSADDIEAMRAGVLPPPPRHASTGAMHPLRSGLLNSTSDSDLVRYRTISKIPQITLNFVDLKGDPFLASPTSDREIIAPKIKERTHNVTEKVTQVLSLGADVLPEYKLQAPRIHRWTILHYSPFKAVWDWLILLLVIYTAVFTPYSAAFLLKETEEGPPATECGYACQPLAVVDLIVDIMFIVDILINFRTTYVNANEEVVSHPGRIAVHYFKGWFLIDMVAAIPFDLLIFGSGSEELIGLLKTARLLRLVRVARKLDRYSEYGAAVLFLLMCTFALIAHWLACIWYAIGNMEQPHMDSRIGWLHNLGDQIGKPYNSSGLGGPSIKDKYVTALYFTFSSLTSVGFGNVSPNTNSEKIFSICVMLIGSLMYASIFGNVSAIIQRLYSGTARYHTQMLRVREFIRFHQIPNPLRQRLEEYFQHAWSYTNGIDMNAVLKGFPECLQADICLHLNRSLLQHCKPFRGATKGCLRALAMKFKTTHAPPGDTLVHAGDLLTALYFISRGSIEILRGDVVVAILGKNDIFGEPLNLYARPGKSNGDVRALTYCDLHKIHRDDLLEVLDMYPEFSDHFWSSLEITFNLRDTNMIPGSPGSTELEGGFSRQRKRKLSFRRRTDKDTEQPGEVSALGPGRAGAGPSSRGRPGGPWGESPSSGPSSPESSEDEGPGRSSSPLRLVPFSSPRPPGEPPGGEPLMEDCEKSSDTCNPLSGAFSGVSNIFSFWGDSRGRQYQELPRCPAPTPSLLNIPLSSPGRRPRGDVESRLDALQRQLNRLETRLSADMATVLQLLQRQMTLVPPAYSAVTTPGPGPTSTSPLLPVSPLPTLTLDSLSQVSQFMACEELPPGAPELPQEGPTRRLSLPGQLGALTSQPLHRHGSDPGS
row,SMILES,"hERG current change (%, negative = inhibition) at 1uM"
1,COc1ccc(C(=O)c2c(C)oc3ccc(O)cc23)cc1,8.72%
2,COC(=O)Cn1cc(C(=O)C2CC2)c2ccccc21,5.85%
3,C/C(CC(=O)Nc1ccc2ccccc2c1)=N\NC(=O)c1cnccn1,1.84%
4,CCN(C(=O)CSc1nccn1C)c1cccc2ccccc12,7.56%
5,CC1CCC(NC(=O)Cn2c(=O)oc3ccccc32)CC1 (centres unmarked),7.33%
6,CCN1C/C(=C/c2cccs2)c2nc3ccccc3c(C(=O)O)c2C1,8.53%
7,C#CCOC(=O)CCCC(=O)Nc1ccccc1OC,9.23%
8,O=C(C1CCCO1)N1CCN(S(=O)(=O)c2ccc(Br)cc2)CC1 (centres unmarked),11.5%
9,CCOc1ccc(CCNC(=O)CN2C(=O)NC3(CCc4ccccc43)C2=O)cc1OCC (centres unmarked),-9.42%
10,Cc1cc(-c2onc3ccc(Cl)cc23)ccc1O,19.7%
11,CN(CC(O)COCc1ccc2c(c1)OCO2)C1CCCCC1.Cl (centres unmarked),-22.5%
12,CCc1ccc(-c2cc3c(=O)n(CC(=O)NCCCN4CCC(Cc5ccccc5)CC4)nc(C)n3n2)cc1,16.5%
13,COc1ccc(C(C#N)N2N=C(C)CC2c2ccccc2)cc1 (centres unmarked),4.86%
14,c1ccc(CSC2=NNC(c3ccccn3)S2)cc1 (centres unmarked),15.7%
15,CCOC(=O)C(Cc1ccccc1)C(=O)Nc1ccc(NC(=O)C(Cc2ccccc2)C(=O)OCC)cc1 (centres unmarked),-10.5%
16,Cc1cc(C)nc(N/N=C2/CCCC/C2=C\c2ccccc2)n1,10.4%
17,CCN(CC)S(=O)(=O)c1ccc(N2CCOCC2)c(NC(=O)CC23CC4CC(CC(Br)(C4)C2)C3)c1,3.31%
18,CCN(CC)CC(O)COc1ccc2c(c1)OCO2.Cl (centres unmarked),-1.81%
19,COc1ccc(/C=C(/NC(=O)c2ccccc2)C(=O)NCC2CCCO2)cc1 (centres unmarked),11.8%
20,Cn1c(Cc2nc3ccccc3n2C)nc2ccccc21,7.78%
21,Cc1ccc2[nH]c3c(Cl)ncnc3c2c1,13.1%
22,CS(=O)(=O)N1CCC(C(=O)O)CC1,11.7%

row,SMILES,"hERG current change (%, negative = inhibition) at 1uM"
1,Fc1ccc(NC(=S)N2CCOCC2)c(F)c1,9.83%
2,CS(=O)(=O)N(CC(=O)N1CCN(c2ccc(F)cc2)CC1)C1CCCCC1,-0.101%
3,CC1CCN(S(=O)(=O)c2cccc(C(=O)N(C)C3(C)CCS(=O)(=O)C3)c2)CC1 (centres unmarked),10.8%
4,Cc1ccccc1NS(=O)(=O)c1ccc(C(=O)NCC2CCCO2)cc1 (centres unmarked),0.609%
5,C=CCc1c(OC)ccc2ccc(=O)oc12,9.89%
6,COc1cccc(C2C=C(c3cccs3)Nc3ncnn32)c1OC (centres unmarked),13.4%
7,CCCCN=C(C)c1c(O)c2ccccc2oc1=O,-1.59%
8,COC(=O)c1sccc1S(=O)(=O)Nc1ccc(Cl)cc1,12.7%
9,CN(C)c1ccc(/C=c2/sc3n(c2=O)NC2(c4ccccc4)N(C)C(=O)N(C)C2(c2ccccc2)N=3)cc1 (centres unmarked),2.12%
10,CCN(CC)C(=O)N1CCN(S(=O)(=O)c2ccccc2)CC1,15.9%
11,O=C(CCNC(=O)c1ccccc1)Oc1ccc([N+](=O)[O-])cc1,1.41%
12,CCCCCOC(=O)CC(C(=O)OCCCCC)N1CCCCC1.Cl (centres unmarked),6.37%
13,COc1ccc(CN2CC(C(=O)NCCCN3CCCCCC3)CC2=O)cc1 (centres unmarked),9.46%
14,Cl.O=C(CCN1CCc2ccccc2C(c2ccccc2)C1)c1ccc2c(c1)OCCO2 (centres unmarked),6.25%
15,c1csc(CN2CCOCC2)c1,10.1%
16,O=C(COC(=O)C12CC3CC(CC(O)(C3)C1)C2)Nc1ccccc1OC(F)F,-5.36%
17,O=C(NCC1CCCO1)c1ccc(CS(=O)(=O)c2ccc(Br)cc2)o1 (centres unmarked),0.33%
18,Cc1ccccc1OCC(O)CN.Cl.O (centres unmarked),3.7%
19,O=C(NC(Cc1ccccc1)C(=O)Oc1ccc2c(C(F)(F)F)cc(=O)oc2c1)OCc1ccccc1 (centres unmarked),11.1%
20,CC(C)c1onc(C(=O)NC2CCCCC2)c1[N+](=O)[O-],9.82%
21,Cc1ccc(NC(=O)CN(C)C(=O)CSc2nnc(C(F)(F)F)n2C)cc1,19.2%
22,CCOc1ccc(N(CC(=O)N2CCCC2)S(=O)(=O)c2ccc(Cl)cc2)cc1,9.67%
